These results are taken from article PMC2844429.

The target in experiment [1] is T1, Ozz (Neuralized-like protein 2), full length, two-hybrid bait (UniProt Q9D0S4).
T1 sequence: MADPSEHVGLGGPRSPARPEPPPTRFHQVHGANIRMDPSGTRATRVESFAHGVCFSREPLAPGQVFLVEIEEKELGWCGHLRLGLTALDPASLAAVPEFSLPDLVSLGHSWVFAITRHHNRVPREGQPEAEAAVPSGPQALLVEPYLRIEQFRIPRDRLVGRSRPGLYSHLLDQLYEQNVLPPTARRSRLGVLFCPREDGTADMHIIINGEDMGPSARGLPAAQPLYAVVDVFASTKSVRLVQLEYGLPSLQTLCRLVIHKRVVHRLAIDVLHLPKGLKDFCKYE
Kind of experiment: two-hybrid; full length Ozz as bait, MyHCemb constructs as preys in pEXP-AD502 (GAL4 activation domain), co-transformed into yeast strain Mav203; reporters HIS3 and LacZ.

Experiment [2] concerns the target embryonic myosin heavy chain (MyHCemb/Myh3), endogenous (mouse (endogenous in primary myoblasts and embryonic muscle)) (UniProt P13541). Kind of experiment: SEC; soluble cytoplasmic (S) fraction of embryonic muscle on Superose 6; fractions immunoblotted; data not shown.
The target is the same in experiment [3]. Kind of experiment: SEC; sarcomeric (P) fraction of E14.5, E16.5, E18.5 embryonic muscle on Superose 6; fractions immunoblotted with anti-MyHCemb, anti-Ozz, anti-MLC; buffer 20 mM Tris-HCl pH 8.0, 200 mM NaCl, 5 mM MgCl2, 5 mM DTT. Background: In gel filtration, larger molecules generally elute earlier.
Experiment [4] shares this target. Put plainly: co-purification with thin-thick filaments; classical preparation of muscle thin-thick filaments from E16.5 embryos (procedure of Trinick et al.), Western blot. Background: In western blotting, separated proteins are transferred to a membrane and probed.
The target is the same in experiment [5]. Put plainly: co-IP; sarcomeric insoluble (P) fraction of E16.5 embryonic muscle; IP with anti-MyHCemb or anti-Elo C on Protein G Dynabeads; blots with anti-MyHCemb, anti-Ozz, anti-MLC.
For experiment [6] the target is unchanged. Kind of experiment: SEC; sarcomeric (P) fraction of E14.5, E16.5, E18.5 embryonic muscle on Superose 6; fractions immunoblotted with anti-MyHCemb, anti-Ozz, anti-MLC; buffer 20 mM Tris-HCl pH 8.0, 200 mM NaCl, 5 mM MgCl2, 5 mM DTT. The source holds these as a separate data set.
Experiment [7] has the same target. Kind of experiment: co-IP; crude lysates of primary myoblast cultures (day 0, 2, 4); IP with anti-MyHCemb (2B6) or anti-Ozz, isotype IgG as control; lysis buffer 50 mM HEPES pH 7.5, 150 mM NaCl, 1% Igepal CA-630, 0.5% deoxycholate, 0.1% SDS; blot with anti-Ozz and anti-MyHCemb.

No constants are given. Whether binding was seen depends on the method and setting. For some assays here: In cells and extracts the contact can be indirect. Some binding calls cover weakened binding; strength is not graded here.

With “MyHCemb (1042-1535 aa), two-hybrid prey (from UniProt P13541 1042-1535) (domain or fragment)”, the binding entry in experiment [1] is “binds weakly”.

Turning to “MyHCemb full length head/neck domain (residues 1-1040), two-hybrid prey (from UniProt P13541 1-1040) (domain or fragment)”, the binding entry in experiment [1] is listed as “no binding”.

For the molecule “MyHCemb (1738-1941 aa), two-hybrid prey (from UniProt P13541 1738-1940) (domain or fragment)”, the binding result in experiment [1] is recorded as “no binding”.

For “MyHCemb (1536-1941 aa), two-hybrid prey (from UniProt P13541 1536-1940) (domain or fragment)”, in experiment [1], the binding result is “binds”.

On to “embryonic myosin heavy chain (MyHCemb/Myh3), endogenous (from UniProt P13541 1-1940)”, for which the binding entry in experiment [2] and in experiment [3] was “binds” throughout.

Take “MyHCemb full length tail domain (residues 1040-1941), two-hybrid prey (from UniProt P13541 1040-1940) (domain or fragment)”: in experiment [1], the binding entry is “binds”.

Take “MyHCemb (1536-1871 aa), two-hybrid prey (from UniProt P13541 1536-1871) (domain or fragment)”: the binding result in experiment [1] is recorded as “no binding”.

B1: Ozz, endogenous (protein, UniProt Q9D0S4 1-285)
chain: T1 sequence
For the molecule B1, the binding entry in experiment [4], in experiment [5], in experiment [6] and in experiment [7] was “binds” in each case.

B2: MyHCemb (1872-1941 aa), two-hybrid prey (domain or fragment, UniProt P13541 1872-1940)
chain: LQVKVKSYKRQAEEADEQANAHLTKFRKAQHELEEAEERADIAESQVNKLRAKTRDFTSSRMVVHESEE
As to B2, the binding result in experiment [1] was “no binding”.

On to QHELEEAEERADIAESQVNKLRAKTRDFTSSRMVVHESEE (domain or fragment, UniProt P13541 1901-1940) [MyHCemb (1901-1941 aa), two-hybrid prey], for which, in experiment [1], the binding entry is “no binding”.
